Measured values from PMC12136788.
Some of the results follow.

T1: UNK ZnF1-3 (human, UniProt Q9C0B0 31-174)
T1 sequence: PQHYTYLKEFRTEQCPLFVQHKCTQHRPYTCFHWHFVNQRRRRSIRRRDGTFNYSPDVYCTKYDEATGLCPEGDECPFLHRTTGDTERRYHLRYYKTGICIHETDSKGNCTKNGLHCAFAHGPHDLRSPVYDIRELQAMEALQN

B1: 77286315_77286435_1648_CDS_ENSMUSG00000036377_ENSMUST00000163347|mouse|control|control (ssRNA)
RNA: GGGAGUUCUACAGUCCGACGAUCAGGCUCCUCCGCGAUCUCUCUCUGCCCUGCGGAUUCCAGGUCUUCUCGUUCCCGUUCCCCUGGCUUCUCAAGGUCCCGCUGCAGUGGGCUUCGCUGGUCAGCAUCGUCCGUUAGCCAAGGCAACAGAGGAUUGAGCAUCA
B2: chr17:45747064:45747065:+_ENSG00000108424_ENST00000290158|hu_hu|hu_hu_hu_mus_True|98_108 (ssRNA)
RNA: GGGAGUUCUACAGUCCGACGAUCGCCUACAGUCCAUGCAGCUGUAUCUCGAACAACUACACUGGGGUCUUUCAUUAGUUCUAUUAGGGUGGGCAUAGCCUGUAUGACUAAUGGUUUCAGUUGAUUAGGCUCUGGUCCUUCCAACAACAGAGGAUUGAGCAUCA
B3: chr9:19378429:19378430:-_ENSG00000137154_ENST00000315377|hu_mus|motif|central (ssRNA)
RNA: GGGAGUUCUACAGUCCGACGAUCACAACAUACUGGCGGACAUCAUCUUCUUUGGAGAGAUUAAAAAGCUUGCGGAUUCGGCGGGCCCUUUUAGGUCCCAACCGACGAGGCACAGUAGUGUCUGUCAGUCCAGGAAUAUCCUUCCAACAGAGGAUUGAGCAUCA
B4: 97413096_97413216_384_3pUTR_ENSMUSG00000038453_ENSMUST00000107596|mouse|control|control (ssRNA)
RNA: GGGAGUUCUACAGUCCGACGAUCUUCUGGAGCCCGCUGAGGGCCUCCAGGCUCUGGGCAGCGAUCACCGUGUGCCGGCGCUCCGAGGUGUGCACCAGCCCCACGUUGGAGAAGCGCCGGCCCCCGCUGCCACCUCCGCCCCCACAACAGAGGAUUGAGCAUCA
B5: 29804774_29806149_1691_CDS_ENSMUSG00000019715_ENSMUST00000019859|mouse|control|control (ssRNA)
RNA: GGGAGUUCUACAGUCCGACGAUCGGAAUCCGUCACUUGGUAGCCAAGCAUCCUUUGAUAGUCCUCCAAGGCCAUCCCUUCCUUGAAAGCUGGGUAGAAAGGAACAGAGUAUGGACACUUCUUGUGGAGAUGAGCAAGAAUGAGCAACAGAGGAUUGAGCAUCA
B6: chr2:117093540:117093541:+_ENSMUSG00000027349_ENSMUST00000028825|mus_mus|motif|central (ssRNA)
RNA: GGGAGUUCUACAGUCCGACGAUCCAAUGUGACUGUUGUCUUGGGCGACAGAGCAUAACGCUUGGGCUGGUAAAUUCUUGCGGUGUUAUCUGUUUUUGCCUUUGCUCUAUCGGACCAUCCAAAGGACUGCACUGUCACAUCCAACAACAGAGGAUUGAGCAUCA
B7: chr10:121026873:121026874:-_ENSMUSG00000034667_ENSMUST00000039810|mus_hu|motif|central (ssRNA)
RNA: GGGAGUUCUACAGUCCGACGAUCUCUUUUGUAGAAUACAUAUUGGCGUUGAAACAGUUUAAAGAAAUGAAAUGGCGGUCGGCAAAAAGUUAGUUUUGAUUGCUGUCUUCCCCCAUACUUUGUGUCUUCACACAUAAAGAAAAUCAACAGAGGAUUGAGCAUCA
B8: chr12:25667166:25667167:+_ENSMUSG00000036333_ENSMUST00000066652|mus_mus|FALSE|FALSE (ssRNA)
RNA: GGGAGUUCUACAGUCCGACGAUCUCUUCCACAUAAUUUAUCACACUCUGUGAUAUAAGAACCGACAUUUUCACAGAAAUCUAUAGCCGACUUUAAUUCACCGUGUCACGGCCUGGCCGAAGACGGCGCCCUCAGCUCUGCAGACAACAGAGGAUUGAGCAUCA
B9: chr17:73195629:73195630:+_ENSMUSG00000039770_ENSMUST00000045174|mus_hu|FALSE|FALSE (ssRNA)
RNA: GGGAGUUCUACAGUCCGACGAUCACGGGUACCACCGAUAUGAUCAAGGAAAAUUCUGCCCAUUUUUAUGGCUGAAGUUCUAAAAACCCUGAGCGGCGGUGAGAUCCGCGGCUGCCAGCGGCUUGUCGCUCUUCAGCUGGUAUGCAACAGAGGAUUGAGCAUCA
B10: chr18:35731670:35731671:+_ENSMUSG00000037236_ENSMUST00000166793|perfect_dup|FALSE|FALSE (ssRNA)
RNA: GGGAGUUCUACAGUCCGACGAUCUGACCCUGUGAGUCCCUACUGAGAGAUGACUGCUGGAAUGACUUGGACAUUGUAGAACUAGCUCUUGUCUAUUUUAUAGAUUAAAAAAAAAAAUUUUUUUAAAGACGGCCAAAAAGAAAGCAACAGAGGAUUGAGCAUCA
B11: chr1:16453270:16453271:-_ENSMUSG00000025920_ENSMUST00000027052|mus_mus|FALSE|FALSE (ssRNA)
RNA: GGGAGUUCUACAGUCCGACGAUCUUAUACUGCUCCCUUCGGAUUCCCAUGUCUGCUCGCCAAGACUCAGCUGCACCGAAAACAUCUGAUUUAUCUGAAGCAUGUUAAGACAAUAUUGAUCAAACUUCCGUAUCCCUCACAGCUCAACAGAGGAUUGAGCAUCA
B12: chr5:145543945:145543946:-_ENSG00000133706_ENST00000545646|hu_hu|hu_hu_hu_mus_True|8_38 (ssRNA)
RNA: GGGAGUUCUACAGUCCGACGAUCCUGAACGGCCAGUGGUGGGAAAUAAUCAAGCCAGUGCUCUGCUUCAGAAAACUUCACUAUGUCGUCAUCAGAGAGGCCAAGGGAUUUCAUAAUGUCCCACUGGUAUUUAGAAGAUCCUGCCAACAGAGGAUUGAGCAUCA
B13: 114201994_114203277_838_CDS_ENSG00000023041_ENST00000369405|human|control|control (ssRNA)
RNA: GGGAGUUCUACAGUCCGACGAUCAGCAUGGAUACAACCCAGUGGUGCUAAAAGGAGAAACAGUGUGAACGAAGCAUGAUUUUGGUAACCACAACAGUUGUUGAUCCAAGGACAGUGAUGGUCCAUCUUCAUCACACAUCUGUUCAACAGAGGAUUGAGCAUCA
B14: 31608904_31609115_2755_CDS_ENSG00000204463_ENST00000375976|human|control|control (ssRNA)
RNA: GGGAGUUCUACAGUCCGACGAUCAAGCUCCAUCUGCUGUCCCCCCAAGCAGUGCAGGUUUAGGGCCAGGCAUUCAAACAGGCCUUGGUUACACAACUCCAGCAACCGGGCCCCAAAUCCACUAUCUGUGCAAUGCAGCACAUGCAACAGAGGAUUGAGCAUCA

The binders below were run against T1, UNK ZnF1-3 (assay: nsRBNS (natural sequence RNA bind-n-seq); RBNS binding buffer (assumed for nsRBNS): 25 mM Tris pH 7.5, 150 mM KCl, 3 mM MgCl2, 0.01% Triton X-100, 500 ug/ml BSA, 20 U/ml SUPERase-In, 4 C; UNK is unkempt and MSI1 is Musashi-1; names of the RNAs are library labels; protein concentration not given here; high values mean tight binding).
B1 showed a binding signal of 0.489 enrichment R. In the case of B2, the binding signal is reported as 0.741 enrichment R. For B3, the binding signal was 0.948 enrichment R. Binder B4 has a binding signal of 0.375 enrichment R. B5 showed a binding signal of 1.27 enrichment R. Binder B6 has a binding signal of 0.39 enrichment R. In the case of B7, the binding signal is reported as 1.05 enrichment R. B8 gave a binding signal of 0.907 enrichment R. In the case of B9, the binding signal is reported as 0.854 enrichment R. For B10, the binding signal was 2.84 enrichment R. B11 gave a binding signal of 1.14 enrichment R. For B12, the binding signal was 1.1 enrichment R. Work on B13 yielded a binding signal of 1.54 enrichment R. Binder B14 has a binding signal of 0.715 enrichment R.
